# The list shows a part of the results.
# T1: UNK ZnF1-6 (called full-length) (human, UniProt Q9C0B0 30-357)
# T1 sequence: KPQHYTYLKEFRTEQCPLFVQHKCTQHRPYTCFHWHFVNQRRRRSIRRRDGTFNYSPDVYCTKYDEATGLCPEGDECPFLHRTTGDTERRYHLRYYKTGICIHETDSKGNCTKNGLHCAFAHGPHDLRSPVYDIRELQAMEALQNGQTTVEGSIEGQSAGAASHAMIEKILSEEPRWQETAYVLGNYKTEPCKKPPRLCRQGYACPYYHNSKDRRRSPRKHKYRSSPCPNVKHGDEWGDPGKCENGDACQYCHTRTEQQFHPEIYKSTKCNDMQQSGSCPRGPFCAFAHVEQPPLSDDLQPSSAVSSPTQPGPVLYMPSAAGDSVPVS
# B1: chr12:48145849:48145950:+|3pUTR|ENSG00000152556|msi1|FALSE|unique (ssRNA)
# RNA: GGGAGUUCUACAGUCCGACGAUCCAUGACCAGUUCUGGCCAGGAGCUGGAGGAGCAGGCAGUGGGUGGGAGCUCCUUUUAGGUAGAAUUUAACAUGACUUCUGCCCCAGCUUUAUCUGUCACACAAGGCUGGGCACCUCUAGUCAACAGAGGAUUGAGCAUCA
# B2: chr3:129431351:129431457:-|3pUTR|ENSG00000129071|unk|total|mutant (ssRNA)
# RNA: GGGAGUUCUACAGUCCGACGAUCACUUCAAAAAAGCUUAAUUAAGUACAACCAACCACCUUUCCAGCCACCGAGAUUUUAAUCCGCCCAACCCGAAGCCCCGUGUGUGUGCUUUCUUAAUGUGUGUGCCAAUGGUGGAUCUUUCAACAGAGGAUUGAGCAUCA
# B3: chr4:168926953:168927063:+|3pUTR|ENSG00000129116|msi1_unk|total|mutant (ssRNA)
# RNA: GGGAGUUCUACAGUCCGACGAUCCAAAAGAGUUUUCUAACAAGGUUAAUACCUCCGUUCUUAACAUUUUUUUUCUUUAUGUGCCGUGUUUUCAUGCUACCUUGGCCGGAAACUUAUUUACAAACCAUAUUAAAAGGCUAAUUUCAACAGAGGAUUGAGCAUCA
# B4: chr10:104140841:104141001:-|CDS|ENSG00000197748|control|control|control (ssRNA)
# RNA: GGGAGUUCUACAGUCCGACGAUCGAAUUUGACAAUCCAAAUUCUUCUUAAACAAGGACAAGUAGAACUGGAAAAUUUCCAGCUAGUACUGGAGUAUUCUGAUGCAAUUCUCAUCAACAAGAACAUAAUUGAAGACUUGAAUUCCAACAGAGGAUUGAGCAUCA
# B5: chr20:37241422:37241523:+|3pUTR|ENSG00000118705|msi1_unk|total|mutant (ssRNA)
# RNA: GGGAGUUCUACAGUCCGACGAUCGUAUGAGAAGAAAAAUGGAAAAAAAAAACUUUAUUUAAAAAAGAAAAAAGUCCAGAUUGCCGUUAUACUUUUGCUUGUUUUUCAGUUUCCCCAACACACAGCAGAUACCUGGUGAGCUCACAACAGAGGAUUGAGCAUCA
# B6: chr11:14877439:14878297:-|three_prime_utr|ENSG00000186104|control|control|control (ssRNA)
# RNA: GGGAGUUCUACAGUCCGACGAUCAAUGUUCUUGUUUUUUACAGCAUUGCUUCAGAGGUUUCAUUUGCAUUUUCCACAUGAACUAGUUCCAGAUCUGAAGCCCAGGUUAGGCAUGACAUUGCAGCCCCAACCCUACCUCAUCUGCAACAGAGGAUUGAGCAUCA
# B7: chr8:43200960:43201061:+|3pUTR|ENSG00000165102|unk|total|mutant (ssRNA)
# RNA: GGGAGUUCUACAGUCCGACGAUCCAAAUUCUAAGUGUUUUCUCUUCCGGUUUCCCUGGCUUUGUGAAUGGAUCAUGUGUCUCCCGGUAUAAACCUGACAUCAUCUUUCCACCCGGCUUACCUCCACCAGAUCUCCCCAGUUCUCAACAGAGGAUUGAGCAUCA
# B8: chr7:158693335:158693439:-|CDS|ENSG00000146918|unk|total|mutant (ssRNA)
# RNA: GGGAGUUCUACAGUCCGACGAUCAAGGAAACAGAAAGAAGAAUUAUGGCAAAGGCUGAAGAAUUUAUUGACAGAUGUGUUGUCCGAAAGCCCAGUGGAUGGGUGGCAGGCCGUGGAAGCCCAGGGUGAAGACAAUAUGGAAACCAACAGAGGAUUGAGCAUCA
# B9: chr11:69651696:69651723:+|3pUTR|ENSG00000110092|msi1_unk|total|mutant (ssRNA)
# RNA: GGGAGUUCUACAGUCCGACGAUCGAGGAUCCGGUUCCAUCCUUUACGUGUUUAAAAAAAAGCAUAAAAACAUUUUAAAAACACCGAAAAAUUCAGCAAACCAUUUUUAAAGCCGAAGAGGGUUUCCGGCCGAAAAACAUAUUCCAACAGAGGAUUGAGCAUCA
# B10: chrX:18604022:18604123:+|CDS|ENSG00000008086|msi1|total|mutant (ssRNA)
# RNA: GGGAGUUCUACAGUCCGACGAUCGACGAAGGUCUCCCUGCCAAUGAAAGCUUCCUAAAUGGAAACCUUGCUGGAGCCCGUCUCCGUCCACUGCACACCAAAACCUACCAAGCAAGCAGCCAGCCUGGGUCUACCAGCAAAGAUCAACAGAGGAUUGAGCAUCA
# B11: chr16:48080881:48083801:-|three_prime_utr|ENSG00000140798|control|control|control (ssRNA)
# RNA: GGGAGUUCUACAGUCCGACGAUCUGAGUUUGACAAGCCUGAAGUCCUUGCAGAGAAGCCAGAUUCUGCAUUUGCGAUGUUACUAGCAGCAGAAGUCAGAUUGUAGAGGUCCUGGCGGCUGAUUCUAGAGGAGGAAGAGGCUCUCAACAGAGGAUUGAGCAUCA
# B12: chr10:91630394:91630495:-|CDS|ENSG00000119938|unk|total|mutant (ssRNA)
# RNA: GGGAGUUCUACAGUCCGACGAUCCUUGGACCUUAAUGAUAUCUCCUCUGCCUUAAAACACCACGAGGAGAAAAACUUGAUUUCCGAUUUCCCUCAGCCUUCAACCGAUUACUUAAGUUUCCGGAGCCACUUUCAGAAGAACUUCAACAGAGGAUUGAGCAUCA
# B13: chr1:52238154:52238269:+|CDS|ENSG00000157077|unk|total|mutant (ssRNA)
# RNA: GGGAGUUCUACAGUCCGACGAUCUCUGACCGUCCCGCCAGUGUCUGUUCCCCUUCACAAUUAAAGGAUGACGGAAGUACCGGCCGAGACCCCUCCAUGUCUGCGAUUACAAGUUUAACGGUUGAUUCAGUAAUCUCAUCCCAGCAACAGAGGAUUGAGCAUCA
# B14: chr2:205797254:205797461:+|3pUTR|ENSG00000118257|msi1|FALSE|unique (ssRNA)
# RNA: GGGAGUUCUACAGUCCGACGAUCUCACCCUCCCAUGAUGCGCAGUGUUCAGAAAGCUGGUAAGUCCUAGGGAUUUCCAGAAGUAGCCUGCAGAAGAAGGUAAGUUUGAAAGCCACUCCAGGGGUCCUGAUGCUGUCAUGCUCACAACAGAGGAUUGAGCAUCA
# Molecular target: T1, UNK ZnF1-6 (called full-length)
# Experiment: nsRBNS (natural sequence RNA bind-n-seq); RBNS binding buffer (assumed for nsRBNS): 25 mM Tris pH 7.5, 150 mM KCl, 3 mM MgCl2, 0.01% Triton X-100, 500 ug/ml BSA, 20 U/ml SUPERase-In, 4 C; UNK is unkempt and MSI1 is Musashi-1; names of the RNAs are library labels; protein concentration not given here; high values mean tight binding
row,Binder,binding signal [enrichment R]
1,B1,6.28
2,B2,0.636
3,B3,1.12
4,B4,0.28
5,B5,0.523
6,B6,0.648
7,B7,0.706
8,B8,1
9,B9,0.444
10,B10,0.772
11,B11,1.15
12,B12,0.273
13,B13,0.482
14,B14,0.598

# — publication PMC12136788
